Laboratory results taken from article PMC4336329 (PLoS ONE, 2015).
Among all 310,000 compounds or so, about 14,000 (4.5%) showed an effect of 50% or more. Effects have a minus sign here. The list shows a part of the results.

Molecular target: human ether-à-go-go-related gene (hERG) potassium channel (human, UniProt Q12809)
Test: primary screen, population patch clamp on CHO cells stably expressing hERG
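Also: peak tail current of the secondary pulse compared with the same well before compound.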

Sequence of human ether-à-go-go-related gene (hERG) potassium channel (Q12809 whole entry, looked up): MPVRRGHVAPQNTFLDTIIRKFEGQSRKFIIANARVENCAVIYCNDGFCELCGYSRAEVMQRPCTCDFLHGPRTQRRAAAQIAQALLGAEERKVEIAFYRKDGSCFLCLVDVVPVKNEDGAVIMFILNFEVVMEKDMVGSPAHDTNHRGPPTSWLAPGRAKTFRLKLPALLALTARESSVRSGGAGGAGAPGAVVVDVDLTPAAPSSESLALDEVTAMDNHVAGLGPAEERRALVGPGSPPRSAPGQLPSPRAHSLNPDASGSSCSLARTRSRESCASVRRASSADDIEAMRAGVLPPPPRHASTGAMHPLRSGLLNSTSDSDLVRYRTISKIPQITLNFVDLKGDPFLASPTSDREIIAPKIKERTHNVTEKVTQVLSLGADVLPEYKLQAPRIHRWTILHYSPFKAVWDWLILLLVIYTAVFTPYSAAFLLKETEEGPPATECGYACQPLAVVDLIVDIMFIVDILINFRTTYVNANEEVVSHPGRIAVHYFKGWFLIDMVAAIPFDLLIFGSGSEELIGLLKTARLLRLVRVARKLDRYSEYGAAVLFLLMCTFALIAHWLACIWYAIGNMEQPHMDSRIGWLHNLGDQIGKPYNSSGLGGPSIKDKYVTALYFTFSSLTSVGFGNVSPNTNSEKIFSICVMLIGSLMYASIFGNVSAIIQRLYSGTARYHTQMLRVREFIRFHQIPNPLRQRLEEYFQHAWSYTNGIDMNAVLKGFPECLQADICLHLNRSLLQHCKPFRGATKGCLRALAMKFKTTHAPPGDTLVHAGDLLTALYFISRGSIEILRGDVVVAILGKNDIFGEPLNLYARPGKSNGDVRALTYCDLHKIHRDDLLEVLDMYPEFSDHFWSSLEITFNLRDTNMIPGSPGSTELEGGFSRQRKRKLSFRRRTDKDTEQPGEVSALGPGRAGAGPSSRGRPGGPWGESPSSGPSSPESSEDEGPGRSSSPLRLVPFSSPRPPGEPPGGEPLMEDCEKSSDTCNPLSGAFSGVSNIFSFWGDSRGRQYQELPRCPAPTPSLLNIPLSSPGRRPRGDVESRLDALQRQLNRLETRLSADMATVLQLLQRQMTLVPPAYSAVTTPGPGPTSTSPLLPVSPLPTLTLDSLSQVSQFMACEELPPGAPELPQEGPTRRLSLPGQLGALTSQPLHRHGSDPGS

| SMILES | hERG current change (%, negative = inhibition) at 10uM |
| --- | --- |
| NC(=O)COC(=O)c1ccc2c(c1)C(=O)N(Cc1ccco1)C2=O | -5.91% |
| CN(Cc1ccccc1)C(=O)CCn1c(=O)oc2ccccc21 | -24.3% |
| O=C(COC(=O)C1CCCO1)Nc1cccc(C(F)(F)F)c1 (stereo not drawn) | 21.1% |
| COc1ccc(CNC(=O)C2CCC(=O)N(CCCN3CCCC3=O)C2)c(OC)c1 (stereo not drawn) | 9.7% |
| COc1ccc(C(C(=O)NC2CCCCC2)N(C(=O)c2ccccn2)c2cccnc2)c(OC)c1 (stereo not drawn) | 20.6% |
| CCCS(=O)(=O)N1CCC(C(=O)N2CCC3(CC2)OCCO3)CC1 | -2.86% |
| CCn1nc(NC(=O)CC(C)C)c2cc3ccc(C)cc3nc21 | 20.2% |
| CC(C)(C)NC(=S)NNC(=O)[C@H]1C[C@@H]1c1ccccc1 | 11% |
| O[C@@H]1CN(Cc2ccccc2Cl)CC[C@H]1N1CCOCC1 | 17.6% |
| CCc1c(C)nc(SCC(=O)Nc2nc(-c3ccc(OC)cc3)cs2)[nH]c1=O | 22.2% |
| NC(=O)NCc1ccccc1Cl | 15.9% |
| Cc1ccc(S(=O)(=O)Nc2cccc(-c3cn4ccsc4n3)c2)cc1 | -2.67% |
| Cn1cccc1Cc1nnc(SCC(=O)Nc2ccc3c(c2)OCCO3)n1-c1ccc(F)cc1 | -7.1% |
| COc1ccc(OC)c(NC(=O)[C@@H]2CCCN2C(=O)c2cccs2)c1 | -2.19% |
| CN1CCN(C(=O)C2=C[C@H](c3coc4ccccc4c3=O)C[C@H](OCc3ccc(CO)cc3)O2)CC1 | -41.1% |
| COc1ccc(C(=O)c2c(N)sc3c2CCN(C(=O)OC(C)(C)C)C3)cc1 | 9.87% |
| CC(C)NCC(=O)C12CC3CC(CC(C3)C1)C2 | 0.0346% |
| CCC(Sc1nc2ccncc2[nH]1)C(=O)Nc1cc(Cl)ccc1C (stereo not drawn) | -44.3% |
| COc1cc(CN(C(=S)NCC(=O)N2CCCC2)C2CCCC2)cc(OC)c1OC | 6.25% |
| CCN(C(=O)COC(=O)c1ccccc1NC(=O)c1ccco1)C1CCS(=O)(=O)C1 (stereo not drawn) | -72.1% |
| CN(CCOc1ccccc1)S(=O)(=O)c1ccccc1C#N | -30.7% |
| COc1ccc(OC)c(NC(=O)NC2CCCc3ccccc32)c1 (stereo not drawn) | 2.64% |
| CN1CCN(CCCN2c3ccccc3Sc3ccc(C(F)(F)F)cc32)CC1.Cl | -30.4% |
| Cc1cc(C)c(C)c(OCCCCN(C)Cc2ccccc2)c1.O=C(O)C(=O)O | -2.9% |
